According to the supplement of paper PMC3334620:
The full ranking holds about 33,000 sequences; the median of “E-score (-0.5 to 0.5)” is about -0.036, and the highest 2% start at about 0.37. The list shows a part of the results.

biological target: T1, Yer064c (UniProt P40041); assay: PBM E-score (8-mer binding enrichment) (E-score (-0.5 to 0.5)); higher = stronger / more preferred TF binding; most listed sequences are background and not binding sites; conditions: protein concentration: 200 nM; construct: GST-full length
T1 sequence: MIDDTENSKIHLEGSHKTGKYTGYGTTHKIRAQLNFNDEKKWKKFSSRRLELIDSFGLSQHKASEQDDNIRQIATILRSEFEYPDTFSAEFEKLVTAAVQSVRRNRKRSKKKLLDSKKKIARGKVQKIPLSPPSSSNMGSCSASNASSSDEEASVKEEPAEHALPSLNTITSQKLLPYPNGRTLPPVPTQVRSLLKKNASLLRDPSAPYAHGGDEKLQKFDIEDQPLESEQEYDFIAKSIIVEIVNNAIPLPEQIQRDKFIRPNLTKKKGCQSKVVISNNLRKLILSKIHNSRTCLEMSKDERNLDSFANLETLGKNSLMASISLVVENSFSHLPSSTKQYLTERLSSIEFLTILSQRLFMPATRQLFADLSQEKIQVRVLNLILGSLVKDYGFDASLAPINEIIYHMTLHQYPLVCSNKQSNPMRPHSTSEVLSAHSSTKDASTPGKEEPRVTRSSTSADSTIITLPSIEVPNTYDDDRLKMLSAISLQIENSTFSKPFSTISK
How it was run: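 Yeast transcription factors carrying a GST tag, as full-length proteins or DNA-binding domains, were produced by PURExpress in vitro transcription/translation. About 100-200 nM protein was applied to universal all-10-mer Agilent arrays, double-stranded by primer extension on fresh or once-stripped slides. Bound protein was detected with fluorescent anti-GST, and scans were normalised with masliner. The Universal PBM Analysis Suite gave each ungapped eight-base word, pooled with its reverse complement, an E-score, a modified Wilcoxon-Mann-Whitney statistic.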

Row | Sequence | PBM E-score
1 | AGGGAATG | -0.0881
2 | ATGTCTGG | -0.153
3 | CCTGTCGC | -0.264
4 | AGAATTCT | 0.146
5 | GAAATCTA | -0.101
6 | AGCACAGA | 0.0464
7 | AGACTTTA | 0.124
8 | GAATAGCA | 0.147
9 | CCTTTTTC | 0.00747
10 | GTAGTTTA | 0.115
11 | ACTTTCTC | 0.0558
12 | GCCCGGTA | -0.284
13 | GGTTTCAA | -0.0375
14 | GTCGATCA | 0.0338
15 | AATCTTGA | 0.193
16 | ATTCGTTA | 0.198
17 | CGTAAATA | 0.0322
18 | ATTTTCCG | -0.0895
19 | ATTGAGCG | 0.0955
20 | CGGACTGC | 0.111
21 | AATGCATG | 0.0357
22 | CAGTTAAC | -0.0534
23 | AGGCATGG | -0.0669
24 | ACCCATAA | 0.145
25 | GCTGCCCC | -0.203

Row | Sequence | PBM E-score
26 | AGATCGAG | -0.173
27 | GCCCCCTA | -0.302
28 | AGCATGCC | -0.131
29 | GGAAGTCA | 0.426
30 | AGTGCCTG | -0.118
31 | CGCCCGCA | -0.0824
32 | CACGCTAA | -0.0272
33 | AATGCTTA | -0.162
34 | GGGGTCAA | -0.102
35 | AAACGAGA | 0.0214
36 | TGGCAGAA | -0.0929
37 | CCCTGTTC | -0.222
38 | CGAATCTA | -0.0926
39 | GATCCCCA | -0.127
40 | CAACTGGG | -0.217
41 | GAGCACAC | -0.151
42 | ATCTCGCG | 0.0687
43 | CTTCCAAG | 0.0955
44 | GTTGCATA | -0.0714
45 | ATGTTAAC | 0.0543
46 | AAGCCATG | 0.0388
47 | ATCTACTA | 0.0859
48 | AGTCTCAG | 0.337
49 | ACTGTTTA | 0.204
50 | GACACCGA | 0.0153

Row | Sequence | PBM E-score
51 | AGCAGCTA | -0.125
52 | CACTCAGG | 0.0389
53 | AACCCACC | 0.111
54 | AACATAAG | -0.0141
55 | GATACTTA | -0.0171
56 | CCAATCGA | -0.0138
57 | CCTAAAGC | -0.134
58 | AATCGCTA | 0.00634
59 | GCCCTGAA | -0.165
60 | TGAACTCA | 0.253
61 | ATCCATAC | 0.0869
62 | GGGAGTAC | 0.137
63 | ACCCAACG | 0.00091
64 | GGGTAGAA | -0.161
65 | ATGAAATA | -0.0533
66 | CCCATTCC | -0.066
67 | ATATGGAC | 0.0761
68 | GCAGGCCC | -0.336
69 | CTTCAACC | -0.0787
70 | AAGATTAG | 0.171
71 | AAACTCCC | -0.271
72 | ATTTTCGA | 0.112
73 | GATGTCCC | -0.168
74 | GTGGTCTA | 0.0978
75 | GCCTTAGC | -0.0881

Row | Sequence | PBM E-score
76 | CCTAACCC | -0.134
77 | AACTAGAA | -0.161
78 | GTCAGGAC | 0.245
79 | ACGATGCT | -0.204
80 | ACACCGTC | -0.0522
81 | AGCGCCCG | -0.316
82 | CACGGCCC | -0.142
83 | CTTGGGAA | 0.0531
84 | CTAGTAGA | 0.0545
85 | AATAGAAC | 0.112
86 | GCGTTGAA | -0.108
87 | CAGTTGAC | 0.227
88 | CCGCGCCA | -0.0972
89 | AACCGCGT | 0.0184
90 | CACGTTCG | -0.0799
91 | CTAGGAGA | -0.0369
92 | ATACAAAC | -0.0266
93 | CACAGGTC | -0.107
94 | ATAGGCCG | -0.319
95 | GTACTTAA | 0.123
96 | CCCCTAAG | -0.13
97 | GAATTGGA | -0.046
98 | CGTTGCCC | -0.211
99 | CATGAACC | 0.0809
100 | CACGTAGC | -0.199

Row | Sequence | PBM E-score
101 | TTAATAAA | 0.234
102 | TGACTCCA | 0.479
103 | GTAATGGA | 0.126
104 | GACCATGC | -0.0432
105 | AAGACTTC | 0.241
106 | CCGTCAGG | -0.274
107 | CCGATACG | -0.121
108 | ACTCCTGG | -0.00178
109 | GGCGCCGA | -0.0673
110 | AACGAACA | 0.0134
111 | AGCCTGCC | -0.341
112 | TCCAAAAA | 0.0763
113 | CAACGTCA | 0.0913
114 | GAGACCGA | -0.106
115 | AGTGACCG | -0.22
116 | ACGTCTAG | 0.115
117 | CCTGGCTC | 0.0419
118 | GCCTAGGC | -0.179
119 | ACTCACGG | 0.376
120 | CCGACGAA | -0.0746
121 | ACCGTGGA | -0.0982
122 | CAGTAAGA | 0.106
123 | AGTGGTGC | -0.103
124 | ACCCCCTG | -0.235
125 | AGGTGAGC | -0.00638

Row | Sequence | PBM E-score
126 | GCCTGACC | -0.125
127 | GTCAACCA | 0.25
128 | ATGACGAC | 0.172
129 | AACCAACA | -0.0532
130 | CGTTTATC | 0.0192
131 | ATCATCCC | 0.278
132 | CGTCATTA | -0.0609
133 | ACTAAACA | 0.233
134 | ATAGTGGG | -0.146
135 | ACCACGCG | 0.0997
136 | CGCGTGGA | -0.204
137 | GTTAGGGA | -0.158
138 | CGTGGCAG | 0.07
139 | ATAATGTC | -0.115
140 | GCGAAAGC | -0.196
141 | AGTACAGG | -0.0366
142 | AAAGAAGG | -0.275
143 | AGCATTTG | -0.101
144 | CGGCTGGC | -0.13
145 | CCGTAACA | -0.172
146 | ATTTGTCA | -0.115
147 | ATGTAAGA | 0.0507
148 | ACACGACG | 0.00926
149 | ATGCACAT | -0.107
150 | ACTTCCAA | 0.0955

Row | Sequence | PBM E-score
151 | ACCAGGGA | -0.192
152 | CCGGGGAG | -0.0658
153 | AATCAAGT | 0.268
154 | AACTATGT | -0.0825
155 | ACTAGAAT | 0.0979
156 | ACGCGCAA | -0.0453
157 | CAAACCGC | -0.0599
158 | ACCACCTG | 0.0602
159 | GCAGTCAC | 0.435
160 | GATAAAGA | -0.119
161 | ACAGATTG | -0.159
162 | CACTCATA | 0.259
163 | CGATGCCA | -0.262
164 | AATTGTTG | -0.091
165 | AAGGGCTC | -0.195
166 | CAAAGTAA | 0.0205
167 | ACCCTTCG | -0.129
168 | ACTTCAAA | 0.179
169 | AATTTGGA | -0.0789
170 | ACCAATGC | -0.0659
171 | CGATATAA | -0.151
172 | CCGGAAAA | -0.0224
173 | AGAATTGG | -0.0862
174 | CCATCCGG | -0.146
175 | CTACACAG | 0.15

Row | Sequence | PBM E-score
176 | GTAGGCAC | -0.307
177 | CAAGTCGG | -0.0486
178 | ACTTTCGG | -0.0323
179 | AACGATTC | 0.231
180 | CCGGATAG | -0.0554
181 | ACCAAAAG | -0.0119
182 | GGGGCATA | -0.185
183 | AATGCAGC | -0.127
184 | TCATAAGA | 0.261
185 | TACATCCA | -0.123
186 | CGCGGTAC | -0.129
187 | ACCGAGTG | -0.0541
188 | TAATTTCA | 0.086
189 | AGGCTGCG | -0.233
190 | CCTGGGCC | -0.309
191 | CCAGTAAA | -0.242
192 | GACTCTAA | 0.381
193 | TCATCCCA | 0.147
194 | AGTATTCA | 0.0452
195 | GTGGAAGA | 0.101
196 | CGACCGGA | -0.169
197 | CCTTTAAG | 0.0502
198 | ACCGGCGG | -0.156
199 | TATTGAGA | 0.168
200 | GTAAGTCA | 0.448

Row | Sequence | PBM E-score
201 | ACTGGCGG | 0.227
202 | ACAGAGAA | -0.11
203 | CGGCCGAC | 0.16
204 | CTAGGTGC | -0.254
205 | CGAAAAAG | 0.13
206 | ACGCCCGA | -0.359
207 | ACTTCCCA | -0.0249
208 | CCTGTAAG | 0.0112
209 | GCATCAAC | -0.122
210 | AAAATTTA | 0.141
211 | CTCGCATA | 0.0331
212 | ACTAGTCA | 0.456
213 | AAGGGTTG | -0.0496
214 | CCCGATAC | -0.157
215 | GTGCCAAA | -0.122
216 | AAGTTACC | 0.00671
217 | CTACGAAC | -0.0979
218 | CCGGCCCA | -0.364
219 | AAATATCA | -0.0552
